Source: ChEMBL document CHEMBL1201862, “PubChem BioAssay data set” (2004)

system: NCI-H322M; experiment: NCI tumour cell line growth inhibition, 48 h

Row | SMILES | GI50
1 | CN(C(=O)Cc1ccc(Cl)c(Cl)c1)[C@@H]1CCCC[C@H]1[N+]1(C)CC=CC1 | inactive: > 100 µM
2 | Nc1nc(F)nc2c1ncn2C1OC(CO)C(O)C1O (centres undefined) | inactive: > 100 µM
3 | Cc1cc2c(cc1-c1cc3c(cc1C)C(C(C)C)=C(O)C(=O)/C3=C\Nc1c3ccccc3nc3ccccc13)/C(=C/Nc1c3ccccc3nc3ccccc13)C(=O)C(O)=C2C(C)C | inactive: 4.23 µM
4 | O=C1c2n[nH]nc2C(=O)c2n[nH]nc21 | inactive: > 100 µM
5 | Cc1cccc2c1Oc1cc(Cl)ccc1C2NC(=O)CN(C)C (centres undefined) | inactive: 91.6 µM
6 | CCOC(=O)c1sc2nc(SC)nc(Nc3ccc(OC)c(OC)c3)c2c1N | inactive: 24.9 µM
7 | CN1CCc2cc(N)cc3c2C1Cc1ccc(O)c(O)c1-3 (centres undefined) | inactive: 32.8 µM
8 | NC(=O)C1CCCNC1 (centres undefined) | inactive: > 100 µM
9 | COc1ccc(NC(=O)CC(=O)NN)cc1 | inactive: > 100 µM
10 | COc1ccc2c(c1O)C13CCN(C)C(C2)C1CCC1(C3)OCCO1 (centres undefined) | inactive: > 100 µM
11 | CC1(C)CC2CC(CC(C)(C)C2=O)C1=O | inactive: > 100 µM
12 | Cc1cc(C(=O)N2CCN(Cc3ccccc3)CC2)c(C)o1 | inactive: > 100 µM
13 | CCOC(=O)C1=C(C)N(Cc2ccccc2)C(=O)C1CC#N (centres undefined) | inactive: > 100 µM
14 | C[C@]12CCC(=O)[C@@H](CCC3=CC(=O)C=CC3=O)[C@@H]1CCC2=O | inactive: 25.6 µM
15 | C[C@]12OC[C@H](c3ccccc3)N1C(=O)C1[C@H]2CC12SCCS2 (some centres undefined) | inactive: > 100 µM
16 | O=C1CSC(c2c[nH]c3ccccc23)N1c1ccccc1[N+](=O)[O-] (centres undefined) | inactive: > 100 µM
17 | CCOc1cc(-c2nc3cc(F)ccc3s2)ccc1O | inactive: 15.2 µM
18 | CCOC(=O)COc1ccc(OCC(=O)OCC)c2c1C(=O)CCCC2=O | inactive: > 100 µM
19 | COC(=O)C(/C(=N/NC(N)=O)C(=O)Nc1ccc(C)cc1)c1nc2ccc([N+](=O)[O-])cc2nc1O (centres undefined) | inactive: > 100 µM
20 | CCCCOP(C)(=O)C(NC(=O)OCC)(C(F)(F)F)C(F)(F)F (centres undefined) | inactive: > 100 µM
21 | O=C1/C(=C/c2c(Cl)[nH]c3ccccc23)c2ccccc2N1c1ccccc1 | inactive: 12.2 µM
22 | CCc1ccc(/N=C\c2cc(OC)c(OC)c(OC)c2)cc1 | inactive: > 100 µM

Row | SMILES | GI50
23 | Cc1ccc(Nc2nc(-c3ccc(-c4ccc([N+](=O)[O-])cc4)o3)cs2)cc1 | inactive: > 100 µM
24 | C=C1C(=O)O[C@H]2[C@H]1[C@@H](OC(=O)C=C(C)C)CC1=C[C@@H](C[C@@]3(C)O[C@@H]23)OC1=O | inactive: 12.1 µM
25 | CCOC(=O)c1c[nH]c2c(Sc3ccccc3)nccc2c1=O | inactive: > 100 µM
26 | COc1ccc(C2N(c3ccc(C)c(N=C=O)c3)C(=O)N3C(c4ccc(OC)cc4)N(c4ccc(C)c(N=C=O)c4)C(=O)N23)cc1 (centres undefined) | inactive: > 100 µM
27 | CCOC1=C2C(=O)OC(=O)C2C2CCCCC2=C1 (centres undefined) | inactive: > 100 µM
28 | CCOC(=O)/C(=C\NC(C)(C)C)c1nc2ccccc2[nH]1 | inactive: 18.3 µM
29 | Cn1c(=O)c2[nH]c(CCC(=O)O)nc2n(C)c1=O | inactive: > 100 µM
30 | CC(C)(CO)NC1=C(Cl)C(=O)c2c(O)ccc(O)c2C1=O | inactive: 1.33 µM
31 | Clc1ccc(C2SCc3nc4ccccc4n32)cc1 (centres undefined) | inactive: 32.5 µM
32 | COc1ccccc1NC(=S)N/N=C(/C)c1ccccn1 | inactive: 2.01 µM
33 | CC1C(=O)OC2CC[N+]3([O-])CC=C(COC(=O)C(C)(O)C1(C)O)C23 (centres undefined) | inactive: > 100 µM
34 | CC(=O)c1ccc2c3c1[C@@H]1O[C@@H]1c1cccc(c1-3)[C@@H]1O[C@H]21 | inactive: 15.1 µM
35 | Nc1cc(O)c2c(c1O)C(=O)C=CC2=O | inactive: 19.9 µM
36 | CC1=C2C(=O)O[C@@H](c3ccoc3)[C@]2(C)CCC1=O [FRAXINELLONONE] | inactive: > 100 µM
37 | CC(=O)O[C@H]1C(=O)[C@@]2(C)[C@H]([C@H](OC(=O)C3CCCCC3)[C@]3(O)C[C@H](OC(=O)[C@H](O)[C@@H](NC(=O)C4CCCCC4)C4CCCCC4)C(C)=C1C3(C)C)[C@]1(OC(C)=O)CO[C@@H]1C[C@@H]2O | active: 0.0492 µM
38 | CO[C@@]12C[C@H](CNC(=O)c3ccc[nH]3)O[C@@H]1NC(=O)N2 | inactive: > 100 µM
39 | COC1OC(CBr)C(OC(c2ccccc2)(c2ccccc2)c2ccccc2)C(OC(c2ccccc2)(c2ccccc2)c2ccccc2)C1OC(c1ccccc1)(c1ccccc1)c1ccccc1 (centres undefined) | inactive: 42.2 µM
40 | O=C1OC2(c3ccc(O)cc3Oc3cc(O)ccc32)c2c1c(-c1ccccc1)c(-c1ccccc1)c(-c1ccccc1)c2-c1ccccc1 | inactive: 21 µM
41 | COC(=O)C1=C(C)NC(C)=C(C(=O)OC)C1c1ccc(N=O)cc1 | inactive: > 100 µM
42 | CCCCCCCCCCCCCP(=O)(O)O | inactive: > 100 µM
43 | CC1(C)C2CCC1C(=O)C(C=O)C2 (centres undefined) | inactive: > 100 µM
44 | Nn1c(SCC(=O)O)nc2ccccc2c1=O | inactive: > 100 µM

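Protocol summary: plate cells (96-well), add compound at 5 concentrations, incubate 48 h, interpolate endpoints linearly. The concentration for 50% growth inhibition is given as GI50.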 Calls of active or inactive are those of the source. Rule as the data show it: active = GI50 up to about 1.1 µM and inactive = higher.
